Source: PubChem BioAssay AID1645887 (National Center for Advancing Translational Sciences (NCATS), 2021)
Values joined by “and” are separate entries in the source; they are usually repeats but may differ in a detail not shown here. Equal entries are not always repeated. About 40 (0.2%) of roughly 16,000 compounds were called active. Not shown: some 1% with an inconclusive outcome. The call rests on the fitted dose curve; in most records, active means well fitted activation curve with a large enough effect; inconclusive means small, poorly fitted or top-dose-only effect, or another doubt; inactive means no such curve, though single readings can be large or run the other way. This is one part of the list.

Each compound was assayed against Rap guanine nucleotide exchange factor 4 (Homo sapiens) (UniProt Q8WZA2) (assay: Validation qHTS for agonist of cAMP-regulated guanine nucleotide exchange factor 4 (EPAC2)). Settings: EPAC2 Rap1B BODIPY-GDP exchange, fluorescence; activation: hits give high values.
How it was run: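 Fluorescent exchange assay: 100 nM EPAC2 with 250 nM RAP1B-BODIPY-GDP and 50 uM GDP; compound added, 5 min at room temperature, then read (ex 480/em 540 nm) every 5 min for 30 min. Normalized to 6.5 mM cAMP agonist control.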
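Further: exchange makes BODIPY-GDP fluorescence drop when released from Rap1B; series mostly up to about 150 µM.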
On the % scale 0 is the no-effect control and ±100 the full control effect.

Chain of UniProt Q8WZA2 (Q8WZA2 whole entry, looked up): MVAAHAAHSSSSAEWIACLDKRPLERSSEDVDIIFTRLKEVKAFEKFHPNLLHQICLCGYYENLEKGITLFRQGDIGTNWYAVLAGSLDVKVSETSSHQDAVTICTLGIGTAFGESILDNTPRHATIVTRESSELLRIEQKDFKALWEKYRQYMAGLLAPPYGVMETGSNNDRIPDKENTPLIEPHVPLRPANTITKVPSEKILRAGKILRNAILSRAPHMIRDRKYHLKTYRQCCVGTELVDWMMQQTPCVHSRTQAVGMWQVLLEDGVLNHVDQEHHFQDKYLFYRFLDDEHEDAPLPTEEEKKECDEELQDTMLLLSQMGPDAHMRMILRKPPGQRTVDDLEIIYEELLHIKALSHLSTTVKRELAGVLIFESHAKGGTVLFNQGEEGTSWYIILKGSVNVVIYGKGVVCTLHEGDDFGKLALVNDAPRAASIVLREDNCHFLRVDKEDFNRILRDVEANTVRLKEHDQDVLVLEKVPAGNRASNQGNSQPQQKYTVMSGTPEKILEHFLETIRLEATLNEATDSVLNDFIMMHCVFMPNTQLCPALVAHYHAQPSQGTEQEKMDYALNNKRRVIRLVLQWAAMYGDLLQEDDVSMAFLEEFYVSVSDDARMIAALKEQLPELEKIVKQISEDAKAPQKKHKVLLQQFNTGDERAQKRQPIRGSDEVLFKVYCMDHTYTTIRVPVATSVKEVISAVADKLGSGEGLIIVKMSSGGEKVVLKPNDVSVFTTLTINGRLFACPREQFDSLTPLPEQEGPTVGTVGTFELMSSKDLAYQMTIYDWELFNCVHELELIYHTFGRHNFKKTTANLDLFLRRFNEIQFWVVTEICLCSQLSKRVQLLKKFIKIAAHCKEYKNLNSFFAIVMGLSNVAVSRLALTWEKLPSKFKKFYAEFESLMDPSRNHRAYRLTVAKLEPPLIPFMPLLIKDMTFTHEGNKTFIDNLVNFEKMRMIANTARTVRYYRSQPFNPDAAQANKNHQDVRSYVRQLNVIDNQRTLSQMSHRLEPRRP

activation, inactive:
CC1CN(CCC(=O)N2CCCC(C(=O)c3nccn3C)C2)Cc2cc(Cl)ccc2O1 (stereo unspecified) 8.79%
Fc1ccc(Nc2nc(-c3ccoc3)nc3ccccc23)cc1 -3.25%
O=c1cc(-c2cc3ccccc3oc2=O)c2ccc(O)cc2o1 -3.59%
CNc1nc(-c2ccccc2CN(C)C)nc2ccccc12 -8.66%
FC(F)(F)c1ccccc1-c1nc(NCc2cccs2)c2ccccc2n1 5.83%
O[Si](CCCN1CCCCC1)(c1ccc(F)cc1)C1CCCCC1 (stereo unspecified) -25.5%
c1ccc(N2CCN(CCCOc3ccc4c(c3)OCO4)CC2)cc1 7.91% and 2.5%
O=C(C1CCCCC1)N(CCN1CCN(c2ccccc2CO)CC1)c1ccccn1 2.62%
c1cncc(OC2CCN(Cc3ccc4c(c3)CN(Cc3nc5ccccc5s3)CCO4)CC2)c1 0.549%
COCc1c(C(=O)N2CCCCCC2)cnn1-c1nccc(-c2cccs2)n1 -12.9%
COc1ccccc1/C=C\C(=O)O -6.2%
COC(=O)N1CCC2(CCCN(Cc3ccccc3)C2)CC1 -7.64%
CCOC(=O)C1=C(C)NC(C)=C(C(=O)OC)C1c1cccc([N+](=O)[O-])c1 (stereo unspecified) -11.7% and -10.6% and -3.01%
COCCOC(=O)C1=C(C)NC(C)=C(C(=O)OC(C)C)[C@@H]1c1cccc([N+](=O)[O-])c1 -17.8%
CCCCCCCCCCCCCCCCC(C(=O)O)C(O)(CC(=O)O)C(=O)O (stereo unspecified) -41.7%
Cc1nc2c(OCc3ccccc3)cccn2c1CC#N -17.7% and -2.55%
COCCC1CCCCN1Cc1nc(N2CCCCC2)c2cc(OC)c(OC)cc2n1 (stereo unspecified) -4.09%
Cc1nc(C)n(CC(=O)NCC2Cc3cc(-c4cccc(OC(F)(F)F)c4)ccc3O2)n1 (stereo unspecified) -1.91%
CN1CCN(c2ncnc3ccc(-c4ccccc4C#N)cc23)CC1 -17%
COc1cccc(C(=O)N2CCc3c(C(=O)NC(C)c4ccco4)c(OC)cc(=O)n3CC2)c1OC (stereo unspecified) -0.0381%
COc1ccc2[nH]cc(CCNc3ncnc4ccc(-c5cccnc5)cc34)c2c1 10.4%
NC(=O)C[C@@H](N)C(=O)O -13.6%
Cc1ccc(F)cc1S(=O)(=O)NCc1nc(N2CCCC2)c2cccc(C)c2n1 -18.2%
N#Cc1cccc(CN2CCC(=O)N([C@H](CO)c3ccccc3)CC2)c1 -2.94%
COc1cccc(Cc2nc3cccnc3n2C2CCN(Cc3ccc(C)s3)CC2)c1 -3.99%
Cc1cc(C)cc(C(=O)NCCn2cc(C(=O)N3CCSCC3)nn2)c1 -4.23%
N[C@H](C(=O)O)[C@H](Cc1ccccc1)C(=O)O -25%
CC(=O)OC[C@@]1(O)C[C@@]23CC[C@@H]4c5ccoc5CC[C@@]4(C)[C@@H]2CCC1C3 -0.868%
O=C1C[C@H](c2ccccc2)Oc2cc(O)cc(O)c21 -11%
O=S(=O)(c1ccccc1)N1CCC2(CCN(c3cccc(-c4ccccc4)c3)CC2)CC1 -2.97%
COc1ccc(CNc2cc(-c3ccccc3CN(C)C)ncn2)c(OC)c1 -6.37%
CCC(COC)NC(=O)c1cnn(-c2ncc3c(n2)-c2ccccc2CC3)c1C (stereo unspecified) 3.4%
CN(C)c1nc2c(Br)c(Br)c(Br)c(Br)c2[nH]1 -20.1%
CCC1CN(Cc2cn[nH]c2-c2ccccc2)Cc2cc(OC)ccc2O1 (stereo unspecified) -7.76%
O=C(c1ccco1)N1CCC2(CC1)CN(c1cccc(-c3ccccc3)c1)C2 -4.71%
COc1ccc(C(=O)Oc2ccc3c(-c4ccc(OC)cc4)cc(=O)oc3c2)cc1 -9.66%
C(=C\c1ccccn1)/c1ccccc1 -0.0507%
COc1ccc(CCNc2ncnc3sc(C(=O)N4CCCCC4)c(C)c23)cc1OC -9.85%
COc1ccc(-c2nc3cnc(OC)nc3n(-c3ccc(OC)cc3)c2=O)cc1 12.8%
CNC(=O)c1ccccc1Sc1ccc2c(/C=C/c3ccccn3)n[nH]c2c1 6.59%
O=C(Nc1cccc(F)c1)N1CC[C@@]2(CCCN(C(=O)c3cccc(F)c3)C2)C1 -6.38%
O=S1(=O)CCOC[C@H](c2ccccc2)N1Cc1ccc(F)cc1 -8.24%
CC(CN1c2ccccc2Sc2ccccc21)N(C)C (stereo unspecified) 3.31% and -30.8% and -16.6%
O=c1c(-c2ccccc2)nc2cnc(N3CCOCC3)nc2n1Cc1ccc(F)cc1 -33.2%
CCNc1ncc2nc(-c3ccc(OC)cc3)c(=O)n(Cc3cccc(OC)c3)c2n1 -3.92%
NS(=O)(=O)c1cc2c(cc1C(F)(F)F)NC(Cc1ccccc1)NS2(=O)=O (stereo unspecified) 4.82% and -0.841%
O[C@@H](c1cc(C(F)(F)F)nc2c(C(F)(F)F)cccc12)[C@H]1CCCCN1 -16.2%
COCCn1c(=O)c(-c2ccccc2)nc2cnc(Oc3ccc(OC)cc3)nc21 -16.5%
c1csc(CNc2ncncc2-c2ccc3c(c2)OCO3)c1 -25.2%
Nc1nc2ccc([N+](=O)[O-])cc2s1 -9.84%
O=C(CCCCCCCCCCCCC1CCCC1)Nc1ccc(S(=O)(=O)c2ccc(NC(=O)CCCCCCCCCCCCC3CCCC3)cc2)cc1 -12.9%
C=O -7.37%
COc1cc(C[C@H]2C(=O)OC[C@@H]2Cc2ccc(OC)c(OC)c2)ccc1O -2.47%
O=C(c1csnn1)N1CCC2(CCN(Cc3cc(C(F)(F)F)cc(C(F)(F)F)c3)CC2)CC1 -22.9%
CS(=O)(=O)N1CCC[C@@]2(CCN(Cc3ccc(C#N)cc3)C2)C1 -14.3%
COc1ccc(CNc2ncncc2-c2ccccc2Cl)c(OC)c1 4.66%
CN1CCC(=O)N(CCSc2ccccc2)CC1 -19%
COc1ccc(-n2c(=O)c(C)nc3cnc(Oc4cccc(Cl)c4)nc32)cc1 7.74%
CC(O)CN(C)C (stereo unspecified) -23.8%
N#Cc1cccc(-c2nc(NCc3cccnc3)c3ccccc3n2)c1 -26.5%
COc1ccccc1CN1CCCC(n2cc(C(=O)N3CCCC3)nn2)C1 (stereo unspecified) -2.92%
COC(=O)C1=CO[C@@H](O[C@H]2OC(CO)C(O)C(O)C2O)C2C1CC(O)C2C (stereo partly specified) -12.9%
CCC(/C=C/C(C)C1CCC2C3CCC4=CC(=O)CC[C@@]4(C)C3CC[C@@]12C)C(C)C (stereo partly specified) 6.91%
CCCCC[C@H]1CN(C2CCCCC2)C(=O)[C@@H]1CC(=O)NCc1ccc(OC)cc1 -19.4%
COc1cc(-c2ccc(Cl)cn2)cc2c1OCCN(C(=O)c1ccccc1-n1cccn1)C2 -18.5%
COCCn1c(=O)c(-c2ccc(F)cc2)nc2cnc(N(C)C)nc21 -12%
COC(=O)C1CCCCN1Cc1nc(N(C)C)c2ccccc2n1 (stereo unspecified) 5.75%
CC(C)[C@H](CO)Nc1nc(Nc2cc(N)cc(Cl)c2)c2ncn(C(C)C)c2n1 -13.6%
COc1cc2c(c(OC)c1OC)-c1ccc(OC)c(=O)cc1[C@@H](NC(C)=O)CC2 -6.4% and -27.6%
CN(CCO)C(=O)c1cn(C2CCN(Cc3cccc4ccccc34)CC2)nn1 -6.32%
O=C(c1ccc(OCCN2CCCCC2)cc1)c1c(-c2ccc(O)cc2)sc2cc(O)ccc12 8.53%
COc1cccc(-c2nccc(-n3ccnc3)n2)c1 2.06%
O=C1c2ccccc2-c2n[nH]c3cccc1c23 4.77% [middle of 5 runs]
CC(=O)OC1CC[C@@]2(C)C(CC[C@@]3(C)C2CC=C2C4CC(C)(C)CC[C@]4(C(=O)O)CC[C@@]23C)C1(C)C (stereo partly specified) -10.9%
OC(c1ccc2c(c1)CN(Cc1cccc3nccnc13)CCO2)C1CCCCC1 (stereo unspecified) -5.21%
N#Cc1ccccc1-c1ccc2ncnc(NC3CC3)c2c1 -9.39%
CCCc1nc(C)c2c(=O)[nH]c(-c3cc(S(=O)(=O)N4CCN(CC)CC4)ccc3OCC)nn12 -3.46%
CC(Oc1ccccc1)C(=O)N[C@@H]1C(=O)N2[C@@H]1SC(C)(C)[C@@H]2C(=O)OCc1ccccc1 (stereo partly specified) -32.9%
C[N+]1(C)[C@@H]2CC(OC(=O)[C@H](CO)c3ccccc3)C[C@H]1[C@H]1O[C@@H]12 (stereo partly specified) -10.5%
COc1ccc(NC(=O)N2CCCC3(CCN(C(=O)c4c(C)noc4C)CC3)C2)cc1 -9.38%
NS(=O)(=O)c1cc2c(cc1Cl)N[C@@H]([C@@H]1C[C@@H]3C=C[C@H]1C3)NS2(=O)=O -20.7%
O=C(O)CCc1nc2ccccc2[nH]1 2.57%
CC(C)(O)C#Cc1ccc(CN2CCc3nnc(CNC(=O)c4cccc(F)c4)n3CC2)cc1 -3.76%
CCC(C)(CN(C)C)OC(=O)c1ccccc1 (stereo unspecified) -10.4%
C[N+]1(CC(=O)c2ccc(I)cc2)CCCc2ccccc21 (stereo unspecified) -5.16%
OCc1ccc(-c2nn(Cc3ccccc3)c3ccccc23)o1 2.92%
